Screen size: about 270,000 compounds; about 620 (0.23%) were called active. Inconclusive results, whose numbers are uncertain, are shown with a selection of clear calls. Calls follow the shape of the dose curve; as a rule, active = well fitted inhibition curve with a large enough effect in the polarisation, with a control signal flat (not every such curve was filed as active); inconclusive = small, poorly fitted or top-dose-only effect, or effect the other way, or a change in a side signal; inactive = no such curve, though single readings can be large or run the other way; the % refers to the polarisation. A potency beside an inconclusive call is a rough fit, not a confirmed value. A note “side channel” means that the fit belongs to a control or component signal, not to the main read-out.
target: Menin (Homo sapiens) (UniProt O00255); assay: qHTS Assay for Inhibitors Targeting the Menin-MLL Interaction in MLL Related Leukemias: Competition With Texas Red Labeled MLL-derived Mutant Peptide; conditions: fluorescence polarization; series mostly up to 61.6 µM
Potency is read from the fitted curve at half-maximal effect; tags tell the direction and shape of the fitted curve or compound fluorescence and quenching.

UniProt O00255, sequence (O00255 whole entry, looked up): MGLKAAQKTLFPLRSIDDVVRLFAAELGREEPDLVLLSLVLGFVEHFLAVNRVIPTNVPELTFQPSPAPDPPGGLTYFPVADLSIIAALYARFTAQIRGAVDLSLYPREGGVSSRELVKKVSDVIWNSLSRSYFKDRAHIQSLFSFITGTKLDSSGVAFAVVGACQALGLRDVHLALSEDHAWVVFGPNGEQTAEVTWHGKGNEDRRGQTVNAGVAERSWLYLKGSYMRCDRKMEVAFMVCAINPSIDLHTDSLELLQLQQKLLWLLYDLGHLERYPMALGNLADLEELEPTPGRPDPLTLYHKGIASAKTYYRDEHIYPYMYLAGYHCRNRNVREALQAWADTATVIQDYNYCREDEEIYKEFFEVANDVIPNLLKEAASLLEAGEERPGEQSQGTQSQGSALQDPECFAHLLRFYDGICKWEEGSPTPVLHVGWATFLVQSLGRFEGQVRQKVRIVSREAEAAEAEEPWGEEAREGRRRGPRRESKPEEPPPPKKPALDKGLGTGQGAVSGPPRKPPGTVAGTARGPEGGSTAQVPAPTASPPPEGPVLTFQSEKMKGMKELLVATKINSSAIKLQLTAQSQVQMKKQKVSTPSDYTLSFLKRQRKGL

| SMILES | Potency |
| --- | --- |
| CCOC(=O)CCCCC(=O)c1[nH]c(=O)[nH]c1CSc1nc(-c2ccccc2)c(C#N)c(=O)[nH]1 | inactive |
| COc1ccc(C(O)(C(C)C)C(CN2CCOCC2)c2ccccc2)cc1 (stereo unspecified) | inconclusive: 14.1 µM [fluorescent, side channel, partial curve] |
| OCCCc1nc2n(n1)C(c1cccs1)C=C(c1ccc(Br)cc1)N2 (stereo unspecified) | inactive |
| CCCCCCNC(=O)c1cn(CC)c2cc(N3CCN(C)CC3)c(F)cc2c1=O | inconclusive: 0.794 µM [inhibitor, full curve, poor fit] |
| COc1ccccc1CNS(=O)(=O)c1ccc2c(c1)CC(C)N2C(=O)C1CC1 (stereo unspecified) | inactive |
| COc1cc(/C=C(\C#N)C(=O)Nc2cccc(C(=O)O)c2)ccc1OCc1ccc(C)cc1 | inconclusive: 10 µM [quencher, side channel, partial curve] |
| COc1ccc(C(=O)/C=C/c2ccc(O)cc2)cc1 | inconclusive: 10 µM [quencher, side channel, partial curve] |
| CN(NC(=S)Nc1ccc(OC(F)F)cc1)C(=S)Nc1ccc(OC(F)F)cc1 | inconclusive: 14.1 µM [quencher, side channel, partial curve] |
| Cc1nnc(C)n1/N=C/c1ccc(C(=O)O)cc1 | inconclusive: 7.08 µM [fluorescent, side channel, single point] |
| CC(Sc1nnc(-c2ccc(O)cc2)o1)C(=O)Nc1cccc2ccccc12 (stereo unspecified) | inconclusive: 17.8 µM [quencher, side channel, partial curve] |
| CCCCn1cc(C(=O)c2cc(Br)ccc2O)cc(C#N)c1=O | inconclusive: 39.8 µM [quencher, side channel, single point] |
| CCN(CC)c1ccc(NC(=O)c2ccccc2Br)cc1S(=O)(=O)Nc1ccccc1OC | inconclusive: 39.8 µM [inhibitor, single point] |
| Cc1ccc(OCC(=O)Nc2ccc(S(=O)(=O)N3CCCC3)cc2)cc1 | inconclusive: 22.4 µM [inhibitor, single point] |
| COC(=O)c1cc(OC)c(OC)cc1NC(=O)CC1CCCCC1 | inactive |
| COc1ccccc1NC(=O)Cn1c(C)nc2c(sc(=S)n2Cc2ccco2)c1=O | inconclusive: 8.91 µM [quencher, side channel, single point] |
| O=C(O)C(c1ccccc1)N1C(=O)/C(=C\c2ccc(-c3ccc(Br)cc3)o2)SC1=S (stereo unspecified) | inconclusive: 10 µM [quencher, side channel, partial curve] |
| COc1cccc2c1C(=O)c1c(O)c3c(c(O)c1C2=O)C[C@@](O)(C(=O)CO)C[C@@H]3OC1CC(N)C(O)C(C)O1 (stereo partly specified) | inconclusive: 28.2 µM [fluorescent, side channel, partial curve] |
| CSC(=NC#N)N1CCN(C(c2ccccc2)c2ccccc2)CC1 | inconclusive: 12.6 µM [fluorescent, side channel, partial curve] |
| CCc1nnc(NS(=O)(=O)c2ccc(N/C=C\C(=O)c3ccc(F)cc3)cc2)s1 | inconclusive: 8.91 µM [quencher, side channel, partial curve] |

| SMILES | Potency |
| --- | --- |
| Oc1c(Cl)cc(Cl)cc1CNc1ccc(Br)cn1 | inconclusive: 31.6 µM [quencher, side channel, single point] |
| Cc1ccc(N=c2c([N+](=O)[O-])nn(-c3ccc(Cl)cc3)n2O)cc1C | inconclusive: 15.8 µM [quencher, side channel, partial curve] |
| C(=Nc1ccc(Nc2ccccc2)cc1)c1ccc2ccccc2c1 | inconclusive: 28.2 µM [quencher, side channel, partial curve] |
| Cc1cc(-c2csc(NC(=O)c3ccc(=O)n(C)n3)n2)c(C)n1CC1CCCO1 (stereo unspecified) | inconclusive: 22.4 µM [quencher, side channel, partial curve] |
| CCc1ccccc1N(C)S(=O)(=O)c1ccc2[nH]cc(C(=O)O)c(=O)c2c1 | inconclusive: 8.91 µM [quencher, side channel, partial curve] |
| O=C(Nc1ccc(Nc2ccccc2)cc1)c1ccco1 | inconclusive: 20 µM [quencher, side channel, single point] |
| COc1ccccc1NC(=O)Nc1nnc(Cc2ccccc2F)s1 | inconclusive: 35.5 µM [fluorescent, side channel, single point] |
| Cc1ccc(-c2nn(-c3ccccc3)cc2/C=N/NC(=O)c2ccc(Br)o2)cc1 | inconclusive: 11.2 µM [inhibitor, partial curve] |
| CCN(CC)CCOC(=O)c1cccc(OC)c1 | inconclusive: 7.94 µM [inhibitor, single point] |
| CCN1C(=O)c2cccc3c(S(=O)(=O)N(C(=O)c4ccncc4)c4ccc(OC)cc4)ccc1c23 | inactive |
| O=C(O)COc1ccc(-c2nccc(-c3ccccn3)n2)cc1 | inconclusive: 28.2 µM [inhibitor, single point] |
| COc1cccc(-c2nc(-c3ccc(NC(=O)c4cccnc4)cc3)no2)c1 | inconclusive: 10 µM [quencher, partial curve] |
| NC1=NC(c2cccc(Cl)c2)N(CCc2ccc(F)cc2)C(N)=N1 (stereo unspecified) | inconclusive: 28.2 µM [inhibitor, single point] |
| COc1cc(/C=C(\C#N)c2nc3ccc(C)cc3[nH]2)cc([N+](=O)[O-])c1O | inconclusive: 14.1 µM [quencher, side channel, partial curve] |
| CCOc1c(Cl)cc(C(=O)Nc2cccc(C(=O)O)c2)cc1Cl | inconclusive: 22.4 µM [quencher, side channel, partial curve] |
| N#Cc1c(-c2ccccc2)nc2n(-c3ccccc3)nc(C(=O)Nc3ccccc3)n2c1=O | inconclusive: 31.6 µM [inhibitor, single point] |
| COC(=O)c1ccccc1-c1ccc(/C=C2\C(=O)N(c3ccccc3)N=C2c2ccccc2)o1 | inconclusive: 3.16 µM [quencher, side channel, partial curve] |
| CCn1c(SCC(=O)Nc2ccc(NC(C)=O)cc2)nc2c([nH]c3ccccc32)c1=O | inconclusive: 39.8 µM [fluorescent, side channel, single point] |
| COc1cccc(N2CCN(c3ccc(N4C(=O)CCC4=O)cc3[N+](=O)[O-])CC2)c1 | inconclusive: 20 µM [quencher, side channel, partial curve] |

| SMILES | Potency |
| --- | --- |
| CN(CC(=O)Nc1ccccc1Oc1ccccc1)Cc1ccccc1F | inconclusive: 39.8 µM [inhibitor, single point] |
| COc1cc(C(=O)NCCCC2CCCC2)ccc1OC1CCN(C(C)=O)CC1 | inconclusive: 25.1 µM [inhibitor, single point] |
| O=C(Cc1cccs1)Nc1cccc(-c2nc3cc4ccccc4cc3[nH]2)c1 | inconclusive: 11.2 µM [quencher, side channel, partial curve] |
| COc1ccccc1NC(=O)Cn1nnc(-c2ccccc2NS(=O)(=O)c2ccccc2)n1 | inconclusive: 12.6 µM [quencher, side channel, partial curve] |
| O=C(O)c1cccc(N2C(=O)C3C4C=CC(C4=C(c4ccccc4)c4ccccc4)C3C2=O)c1 (stereo unspecified) | inconclusive: 20 µM [quencher, side channel, partial curve] |
| C(=C\c1ccccc1)/C=N/Nc1nc2ccccc2s1 | inconclusive: 31.6 µM [quencher, side channel, partial curve] |
| CCOC(=O)c1cc2occc2n1CC(=O)N1CCCc2ccccc21 | inactive |
| O=C(NCc1ccco1)c1nn2c(C(F)(F)F)cc(-c3cccs3)nc2c1Cl | inactive |
| Fc1ccc(CN2CCN(C(c3ccccc3)c3ccccc3)CC2)cc1 | inconclusive: 15.8 µM [fluorescent, side channel, partial curve] |
| COc1ccc(/C=C2\Oc3cc(OCC(=O)N4CCC[C@H]4C(=O)O)ccc3C2=O)c(OC)c1OC | inconclusive: 11.2 µM [quencher, side channel, partial curve] |
| Cc1ccc(SCCN2CCC(NC(=O)OCc3ccccc3)CCC2=O)cc1 (stereo unspecified) | inconclusive: 39.8 µM [inhibitor, single point] |
| Cc1oc2cc3oc(=O)c(CCC(=O)NCc4ccccn4)c(C)c3cc2c1C | inconclusive: 20 µM [inhibitor, partial curve] |
| COc1cc2cc(NC(C)=O)cc(NCc3ccccc3)c2cc1OC | inconclusive: 25.1 µM [quencher, side channel, single point] |
| c1cc2c3c(cccc3c1)NC1(CCC3(CC1)Nc1cccc4cccc(c14)N3)N2 | inconclusive: 3.16 µM [quencher, side channel, full curve] |
| COc1ccc(Nc2ncc3nc(-c4cccs4)c(=O)n(Cc4cccc(OC)c4)c3n2)cc1 | inconclusive: 2 µM [quencher, side channel, full curve] |
| CCOC(=O)NC(=O)CSc1cc(C)c2cc(C)cc(C)c2n1 | inconclusive: 3.55 µM [fluorescent, side channel, full curve, poor fit] |
| CCN(CC)c1ccc(NC(=O)c2ccccc2F)cc1S(=O)(=O)Nc1ccccc1OC | inconclusive: 14.1 µM [quencher, side channel, single point] |
| N#C/C(=C\c1ccc([N+](=O)[O-])cc1)C(=O)Nc1ccccc1O | inconclusive: 31.6 µM [quencher, side channel, single point] |
